From the supplement of paper PMC4604168 (melanoma cell lines)
The other results are listed elsewhere or left out. Repeats are few or missing, and single values can be far off.

How the values were obtained:
Experiment in all cases: cell count relative to DMSO control; melanoma cells; higher = more viable cells
[1] = system: WM115; settings: library dose: low library concentration; 72 h
[2] = system: WM1716; settings: library dose: low library concentration; 72 h
[3] = system: WM1745; settings: library dose: low library concentration; 72 h
[4] = system: WM3526; settings: library dose: low library concentration; 72 h
[5] = system: WM3619; settings: library dose: low library concentration; 72 h
[6] = system: WM451Lu; settings: library dose: low library concentration; 72 h
[7] = system: 501Mel; settings: library dose: standard library concentration; 72 h
[8] = system: A101D; settings: library dose: standard library concentration; 72 h
[9] = system: A2058; settings: library dose: standard library concentration; 72 h
[10] = system: A375; settings: library dose: standard library concentration; 72 h

Compound | cell count [1] | cell count [2] | cell count [3] | cell count [4] | cell count [5] | cell count [6] | cell count [7] | cell count [8] | cell count [9] | cell count [10]
CCCCCCCCc1ccc(CCC(N)(CO)CO)cc1 [fingolimod] + CCCCCCCCCCCC1=C(O)C(=O)C=C(O)C1=O [Embelin] (first compound 2 µM, partner dose 1.2 µM) | 85.7% | 92.1% | 80.4% | 82.1% | 89.7% | 109% |  |  |  | 
Cc1ccc(NC(=O)c2cccc(N(C)C)c2)cc1NC(=O)c1ccc(O)cc1 + O=C(O)C(=O)Nc1sc2c(c1C(=O)O)CCNC2 [TCS401] (first compound 2 µM, partner dose 1.66667 µM) | 97.8% | 110% | 81.8% | 82.4% | 114% | 90.8% |  |  |  | 
CC(C)(C)c1cnc(CSc2cnc(NC(=O)C3CCNCC3)s2)o1 + Cn1cc(/C=C2\C(=O)Nc3cccnc32)c2ccccc21 [GW441756] (first compound 0.01 µM, partner dose 0.4 µM) | 88% | 106% | 84.5% | 117% | 104% | 99.9% |  |  |  | 
COc1cc2c(Oc3ccc4[nH]c(C)cc4c3F)ncnc2cc1OCCCN1CCCC1 [cediranib] + O=C1NC(=O)/C(=C/c2ccc(-c3ccc(F)cc3O)o2)S1 [AS252424] (first compound 0.4 µM, partner dose 1 µM) | 108% | 97% | 92.4% | 125% | 122% | 123% |  |  |  | 
CCCCCCCCc1ccc(CCC(N)(CO)CO)cc1 [fingolimod] + COC(=O)c1sccc1S(=O)(=O)Nc1ccc(Nc2ccccc2)cc1OC [GSK0660] (first compound 2 µM, partner dose 1 µM) | 86% | 95.7% | 82.9% | 85.8% | 88.4% | 97.4% |  |  |  | 
CCCCCCCCc1ccc(CCC(N)(CO)CO)cc1 [fingolimod] + Nc1ccn([C@@H]2O[C@H](CO)[C@@H](O)C2(F)F)c(=O)n1 [gemcitabine] (first compound 2 µM, partner dose 0.0004 µM) | 90.1% | 83.5% | 82% | 92.3% | 81.6% | 123% |  |  |  | 
CC(C)(C)c1cnc(CSc2cnc(NC(=O)C3CCNCC3)s2)o1 + O=C(Nc1ccccc1)c1cc([N+](=O)[O-])ccc1Cl [GW9662] (first compound 0.01 µM, partner dose 2 µM) | 94.9% | 96% | 103% | 124% | 108% | 82.6% |  |  |  | 
CCCCCCCCc1ccc(CCC(N)(CO)CO)cc1 [fingolimod] + NCC(=O)Nc1ccc(-n2nc(C(F)(F)F)cc2-c2ccc3c(ccc4ccccc43)c2)cc1 [OSU03012] (first compound 2 µM, partner dose 1 µM) | 72.8% | 71.5% | 69.7% | 16.9% | 99% | 60.9% |  |  |  | 
Cc1ccc(NC(=O)c2cccc(N(C)C)c2)cc1NC(=O)c1ccc(O)cc1 + C[C@@H]1CCN(C(=O)CC#N)C[C@@H]1N(C)c1ncnc2[nH]ccc12 [CP690550] (first compound 2 µM, partner dose 1 µM) | 98.5% | 96.4% | 87.5% | 108% | 98.4% | 116% |  |  |  | 
CN(NC(=O)CC(=O)NN(C)C(=S)c1ccccc1)C(=S)c1ccccc1 + Oc1nc(-c2ccc(C(F)(F)F)cc2)nc2c1CSCC2 [XAV939] (first compound 0.006 µM, partner dose 2 µM) | 78.9% | 55.2% | 76.7% | 86.1% | 88.8% | 83.7% |  |  |  | 
CCCCCCCCc1ccc(CCC(N)(CO)CO)cc1 [fingolimod] + C#Cc1cccc(Nc2ncnc3cc(OCCOC)c(OCCOC)cc23)c1 [erlotinib] (first compound 2 µM, partner dose 0.8 µM) | 108% | 75.8% | 71.4% | 99.9% | 80.1% | 94.4% |  |  |  | 
Cc1ccc(NC(=O)c2cccc(N(C)C)c2)cc1NC(=O)c1ccc(O)cc1 + CCCCCCCCCCCC1=C(O)C(=O)C=C(O)C1=O [Embelin] (first compound 2 µM, partner dose 1.2 µM) | 105% | 105% | 86.4% | 97.8% | 108% | 104% |  |  |  | 
NC(=O)c1ccc(N(C(N)=O)c2c(F)cccc2F)nc1-c1ccc(F)cc1F + N#Cc1c(O)c2c(-c3ccc(-c4ccccc4O)cc3)csc2[nH]c1=O [A769662] (first compound 2 µM, partner dose 10 µM) |  |  |  |  |  |  | 91.1% | 103% | 95.1% | 118%
NC(=O)c1ccc(N(C(N)=O)c2c(F)cccc2F)nc1-c1ccc(F)cc1F + Oc1cc(-c2nc(-c3ccccc3)[nH]c2-c2ccncc2)ccc1Cl [L779450] (first compound 2 µM, partner dose 1 µM) |  |  |  |  |  |  | 72% | 67% | 95.7% | 85.6%
